{"source": "PubChem BioAssay AID1347434", "about": "(National Center for Advancing Translational Sciences (NCATS), 2020)", "note": "About 30 (2%) of roughly 1,200 compounds were called active. Another 23% or so got no clear call; they are omitted. Calls follow the shape of the dose curve; as a rule, active = well fitted inhibition curve with a large enough effect; inconclusive = small, poorly fitted or top-dose-only effect; inactive = flat fitted curve, though single readings scatter. The list shows a part of the results. % is scaled to controls: 0 for no effect and ±100 for the full control effect; potency is read from the fitted curve at half-maximal effect."}
{"molecular_target": "Single-stranded DNA cytosine deaminase (Homo sapiens) (UniProt Q9GZX7)", "sequence (Q9GZX7 whole entry, looked up)": "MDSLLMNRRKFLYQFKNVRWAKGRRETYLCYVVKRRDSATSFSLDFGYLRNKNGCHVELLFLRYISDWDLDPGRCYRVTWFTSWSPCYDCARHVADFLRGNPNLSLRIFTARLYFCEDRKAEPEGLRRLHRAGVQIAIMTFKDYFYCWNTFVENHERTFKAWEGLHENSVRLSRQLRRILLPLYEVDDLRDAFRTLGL", "experiment": "Confirmatory qHTS assay for inhibitors of Activation Induced Cytidine Deaminase (AID): AID signals", "conditions": "recombinant AID, FRET deamination/UDG coupled fluorescence, 4 h; series mostly up to 115 µM; activity, negative = inhibition: at the top concentration", "in_short": "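Read 1 (AID) was measured at 540 ex/590 em after a 30 min NaOH step. The reaction was AID (1 uM, 4/3x stock) with UDG, compound at final 7.32 nM - 114 uM for 10 min, then DJC20/DJC23 substrate for 4 hr at room temperature. A UDG read at 560/665 serves as counterscreen.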"}
{"smiles": "Cc1ccc(-c2nc(NC(=O)CSc3cc(C)c4ccccc4n3)ns2)cc1", "Potency": "active: 28.2 µM"}
{"smiles": "COc1ccc(C)cc1NC(=O)c1c(C)oc2ncn(CC(C)C)c(=O)c12", "activity, negative = inhibition": "inactive: -3.76%"}
{"smiles": "CCCn1cc(S(=O)(=O)c2ccccc2)c(=O)c2cc(F)c(N3CCCC(C)C3)cc21", "note": "(stereo unspecified)", "activity, negative = inhibition": "inactive: 5.07%"}
{"smiles": "CCOc1ccc(/C=C/c2nc(C#N)c(NCc3ccccc3)o2)cc1", "activity, negative = inhibition": "inactive: 6.33%"}
{"smiles": "COc1ccc(Nc2oc(-c3ccc(COc4ccccc4C)o3)nc2C#N)cc1", "activity, negative = inhibition": "inactive: -0.14%"}
{"smiles": "CC(C)(C)c1ccc(OCc2nc3ccccc3n2CCOc2ccccc2)cc1", "activity, negative = inhibition": "inactive: -15.7%"}
{"smiles": "COc1cccc(N2CCN(C(=O)c3cnn(-c4ccc(C)cc4C)c3C3CCN(C(=O)OC(C)(C)C)CC3)CC2)c1", "activity, negative = inhibition": "inactive: -2.94%"}
{"smiles": "COc1ccc(-c2noc(N3CCC(C(=O)N(C)c4cc(Cl)ccc4OC)CC3)n2)cc1", "activity, negative = inhibition": "inactive: -4.38%"}
{"smiles": "Cc1ccc(C)c(N2CCN(C(=O)c3cc(S(=O)(=O)N4CCC(C)CC4)cn3C)CC2)c1", "activity, negative = inhibition": "inactive: -14.5%"}
{"smiles": "CC1=C(C(=O)Nc2ccccc2)C(c2cc(Br)ccc2F)n2ncc(C(=O)Nc3ccccc3)c2N1", "note": "(stereo unspecified)", "activity, negative = inhibition": "inactive: 1.96%"}
{"smiles": "O=C(O)c1ccc2c(c1)N(Cc1ccc(F)cc1Cl)C(=O)c1ccccc1S2", "activity, negative = inhibition": "inactive: -9.29%"}
{"smiles": "CCOCCCNC(=O)c1cn(CC)c2ccc(S(=O)(=O)N3CCc4ccccc4C3)cc2c1=O", "activity, negative = inhibition": "inactive: -4.56%"}
{"smiles": "CCOC(=O)c1c(Oc2ccc(C(C)=O)cc2)nnc(-c2ccccc2)c1-c1ccccc1", "activity, negative = inhibition": "inactive: 2.35%"}
{"smiles": "CCN(CC)CCCNC(=O)c1ccc2c(Cl)c3c(nc2c1)CCCC3", "activity, negative = inhibition": "inactive: -3.87%"}
{"smiles": "Cc1ccc(N2CCN(C(=O)NCc3noc4ccc(C)cc34)CC2)c(C)c1", "activity, negative = inhibition": "inactive: -17.2%"}
{"smiles": "O=C(CC1N=C2c3ccccc3N=C(SCc3cccc(Cl)c3)N2C1=O)NCCc1ccccc1", "note": "(stereo unspecified)", "activity, negative = inhibition": "inactive: -18.7%"}
{"smiles": "CCOC(=O)N1CCc2c(sc(NCc3cccs3)c2C(=O)Nc2ccc(OC)cc2OC)C1", "activity, negative = inhibition": "inactive: 34.4%"}
{"smiles": "COc1ccc(CC(=O)N(Cc2nc(-c3ccc(C)cc3)no2)C(C)C)cc1", "activity, negative = inhibition": "inactive: -2.5%"}
{"smiles": "CCOc1ccc(N(CC)C(=O)CCc2nc(-c3ccccc3F)no2)cc1", "activity, negative = inhibition": "inactive: -12.6%"}
{"smiles": "Cc1nc(-n2nc(C)c(CCC(C)C)c2C)sc1C(=O)Nc1cccc(Cl)c1", "activity, negative = inhibition": "inactive: -12.4%"}
{"smiles": "COc1ccccc1CC(=O)Nc1ccc2nc(Nc3cccc(C(F)(F)F)c3)cc(C)c2c1", "activity, negative = inhibition": "inactive: -2.77%"}
{"smiles": "Cc1ccc(Cl)cc1N1CCN(C(=O)c2cnn(C)c2C2CCN(C(=O)OC(C)(C)C)CC2)CC1", "activity, negative = inhibition": "inactive: -27.2%"}
{"smiles": "COc1ccc(C2CC(=O)N3CN(C4CCCCC4)CSC3=C2C#N)c(OC)c1", "note": "(stereo unspecified)", "activity, negative = inhibition": "inactive: -10.8%"}
{"smiles": "Cc1c(C(=O)NCc2cccc(Cl)c2)sc2nc3n(c(=O)c12)CCCC3", "activity, negative = inhibition": "inactive: -6.11%"}
{"smiles": "CCn1c(C)c(C)c2cc(C(=O)N3CCN(c4ccccc4)CC3)ccc21", "activity, negative = inhibition": "inactive: -1.49%"}
{"smiles": "Cc1ccc(C)c(CN2C(=O)c3ccccc3S(=O)c3ccc(C(=O)N4CCC(C)CC4)cc32)c1", "note": "(stereo unspecified)", "activity, negative = inhibition": "inactive: -10.6%"}
